# According to PubChem BioAssay AID1346428 (National Center for Advancing Translational Sciences (NCATS), 2018):
# Values joined by “and” are separate entries in the source; they are usually repeats but may differ in a detail not shown here. Equal values may be shown once. In all, about 48,000 compounds went through this assay and about 1,200 (2.5%) were called active. Another 2% or so got no clear call; they are omitted.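 How the source made its calls: active means activation of at least 60% and not above a set upper limit (about 1 call in 100 departs from these limits); inconclusive means activation of 40% to 60%, or above that upper limit; inactive means activation under 40%.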 The list shows a part of the results.
# Biological target: Probable G-protein coupled receptor 32 (Homo sapiens) (UniProt O75388)
# UniProt O75388, sequence (O75388 whole entry, looked up): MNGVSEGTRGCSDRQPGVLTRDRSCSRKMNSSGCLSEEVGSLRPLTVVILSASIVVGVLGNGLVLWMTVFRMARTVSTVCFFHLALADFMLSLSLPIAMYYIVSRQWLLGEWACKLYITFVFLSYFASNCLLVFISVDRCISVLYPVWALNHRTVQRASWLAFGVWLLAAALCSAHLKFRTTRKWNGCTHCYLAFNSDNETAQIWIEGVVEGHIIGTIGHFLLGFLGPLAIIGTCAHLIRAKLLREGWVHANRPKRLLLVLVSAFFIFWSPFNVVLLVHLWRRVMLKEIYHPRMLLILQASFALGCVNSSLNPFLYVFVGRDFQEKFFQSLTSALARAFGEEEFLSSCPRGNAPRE
# Assay: qHTS for Agonists of Human Resolvin D1 Receptor DRV1; further: 0% is about no effect
# Conditions: CHO-K1 GPR32 beta-arrestin PathHunter luminescence, 90 min; at 76.9 µM; hits give high values; zero percent set by DMSO-only wells
# Summary of the method: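 PathHunter enzyme-fragment complementation, CHO-K1 GPR32 stable line; 2,500 cells/well, overnight attach; cpd 90 min 37 °C 5% CO2; detection reagent 1 h RT; chemiluminescence. DMSO = EC0.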
row,Structure (SMILES),activation
1,Cc1nc2ccn(Cc3cccnc3)c(=O)c2cc1C(=O)N1CCN(c2ccccc2F)CC1,inactive: -4.79%
2,Cc1c(C)n(Cc2ccccc2)c2ccc(C(=O)N3CCN(c4ccccc4F)CC3)cc12,inactive: -36.3%
3,COc1ccc2c(c1)Cc1sc(NC(=O)c3ccccc3C)nc1-2,inactive: -5.97%
4,Cc1ccc(C)c(N2CCN(c3nc4ccccc4c(=O)n3-c3ccc(Cl)cc3)CC2)c1,inactive: -14%
5,CCOc1ccc(-c2nnc(SCC(=O)NC3CCCCC3)nc2-c2ccc(OCC)cc2)cc1,inactive: -13.9%
6,COc1ccc(C2=C(C)C(N3CCC(C(=O)NCc4ccc(C)o4)CC3)=NS2(=O)=O)cc1,inactive: -0.159%
7,COc1cccc(CNC(=O)c2ccc(-c3nc(CS(=O)c4ccccc4)c(C)o3)cc2)c1 (centres undefined),inactive: -13.6%
8,COc1cc2nc(N(C)CCCNC(=O)C3CCCO3)nc(N)c2cc1OC (centres undefined),inactive: 15.5% and inactive: 1.79%
9,COc1ccc(NC(=O)Cn2cnc3ccc(S(=O)(=O)N4CCC(C)CC4)cc3c2=O)c(OC)c1,inactive: -4.84%
10,COc1ccc(Nc2nc3ccccc3nc2NS(=O)(=O)c2ccc(C)cc2)c(OC)c1,inactive: -9.23%
11,CCOC(=O)c1cc(-c2ccccc2)n(CCC(=O)NCc2ccccc2Cl)c1C,inactive: -33.6%
12,COC(=O)c1sc2cccc(F)c2c1S(=O)(=O)N1CCN(c2cccc(OC)c2)CC1,inactive: -9.1%
13,COc1cccc2cc(S(=O)(=O)c3ccc(F)c(C)c3)c(=O)oc12,inactive: -1.55%
14,O=C(COc1ccccc1F)OCc1cc(=O)n2nc(C3CCCCC3)sc2n1,inactive: -11.9%
15,CCN(CC)c1cc(C)c2cc(NC(=O)c3cccc(OC)c3OC)ccc2n1,active: 94.8%
16,O=C1Nc2ccccc2Oc2cc(Oc3cccc(Cl)c3)ccc21,active: 91.3%
17,CCCCN(C)CCNC(=O)C1CCCN(S(=O)(=O)c2cccc3nsnc23)C1 (centres undefined),inactive: -3.3%
18,Cc1nnc(N2CCCC(C(=O)NCc3ccccc3)C2)c2nn(-c3ccccc3)c(C)c12 (centres undefined),inactive: 2.61%
19,Cc1c(Cl)cccc1-c1ccc(CNCCCSc2nnnn2C)o1,inactive: -8.92%
20,CCc1ccc(S(=O)(=O)c2cn(C)c3cc(N4CCOCC4)c(F)cc3c2=O)cc1,inactive: -8.24%
21,Fc1ccc(N2CCN(c3nc4ccccc4c4nc(-c5cccnc5)nn34)CC2)cc1,inactive: 9.23%

row,Structure (SMILES),activation
1,Cc1cc(C)c(S(=O)(=O)N2CCC(n3c(C(F)(F)F)nc4cccnc43)CC2)c(C)c1,inactive: -24.2%
2,Cc1nc2nc(SCC(=O)N(C)Cc3ccccc3)nn2c(C)c1Cc1ccccc1Cl,inactive: -26.3%
3,Cc1cn2c(=O)cc(COc3cccc(NC(=O)c4ccc(C(C)(C)C)cc4)c3)nc2s1,inactive: -9.41%
4,CCOC(=O)C1CCN(CC(=O)Nc2cc(C)c3c(=O)oc4ccccc4c3n2)CC1,inactive: 2.2%
5,C=CCc1ccccc1OCCSc1nc(-c2cccs2)nc2cc(=O)[nH]n12,active: 85.6%
6,CCOc1ccc(NC(=O)c2c(C)nn(-c3ccc(F)cc3)c2-n2cccc2)cc1,inactive: 20.9%
7,O=C(CCn1cnc2onc(-c3ccc(F)cc3)c2c1=O)Nc1ccc(F)c(Cl)c1,inactive: 6.51%
8,CCc1c(C)sc2c1CCN(Cc1ccccc1)C2c1ccccc1 (centres undefined),inactive: 43.5%
9,O=C(Nc1ccc(OCc2cc(=O)n3c4c(sc3n2)CCCC4)cc1)c1cccc(F)c1,inactive: 1.53%
10,Cc1nn(-c2ccccc2)c2nc(C3CC3)cc(C(=O)Nc3ccc(F)cc3)c12,inactive: -5.19%
11,Cc1ccc(NC(=O)CN(C)S(=O)(=O)c2ccc3c(c2)n(C)c(=O)c(=O)n3C)cc1F,inactive: -16.9%
12,COc1ccc(C)cc1NC(=O)COc1cc(=O)n(C)c2ccccc12,inactive: 26.5%
13,CCc1ccc(NC(=O)CN(C)S(=O)(=O)c2ccc3c(c2)c(=O)n(C)c(=O)n3C)cc1,inactive: 4.89%
14,COc1ccc(NC(=O)c2ccco2)cc1NC(=O)COc1cccc(C)c1C,inactive: -2.13%
15,C[N+](C)(C)CCCCCCCCCC[N+](C)(C)C,inactive: 21.4% and inactive: -0.425%
16,O=C(CSc1oc(-c2ccccc2)nc1S(=O)(=O)c1ccc(Br)cc1)c1ccccc1,inactive: -23.3%
17,Cc1ccc(NC(=O)c2nnn(Cc3ccccc3)c2N)cc1C,inactive: 8.76%
18,CCOC(=O)c1cc2c(=O)n3ccccc3nc2n(Cc2ccco2)c1=NC(=O)c1ccc(Br)cc1,inactive: -28.8%
19,O=C(Nc1ccc(Br)cc1)c1ccc(F)c(S(=O)(=O)NC2CCCCCC2)c1,inactive: 7.77%
20,Cc1ccccc1-c1nc(SCC(=O)NCc2ccc(F)cc2)c2c(=O)n(C)c(=O)n(C)c2n1,inactive: -0.335%
21,COc1ccccc1N1CCN(c2nc3ccccc3n3cnnc23)CC1,inactive: -6.16%

row,Structure (SMILES),activation
1,COc1ccc(-c2nc(-c3cc4cc(Br)ccc4oc3=O)cs2)cc1,inactive: 1.08%
2,Cc1ccc(-n2nc(CO)c(C(=O)NCc3ccccn3)n2)cc1,inactive: -4.23%
3,Cc1cccc(C)c1NC(=O)Nc1csc2c1CCCC2,inactive: -12.3%
4,O=C(CCn1nc(-c2ccccc2)c2ccccc2c1=O)Nc1ccccc1,inactive: 19.6%
5,CCc1ccc(-n2nnc(-c3nsc(NC(=O)c4ccccc4Cl)n3)c2C)cc1,active: 105%
6,Cc1cc(-c2ccc(C)c(S(=O)(=O)Nc3cccc(C)n3)c2)on1,inactive: -7.78%
7,COc1ccc(OCc2ccc(-c3nc(C#N)c(N4CCN(c5ccccc5)CC4)o3)o2)cc1,inactive: 6.06%
8,CC(=O)Nc1ccc(NC(=O)c2cc(=O)c3ccccc3o2)cc1,inactive: -14.2%
9,Cc1ccc2c(c1)N(C(=O)N1CCC(C(=O)NCc3cccc(Br)c3)CC1)CCO2,inactive: 2.94%
10,O=C(O)/C(=C/c1c(C(=O)O)[nH]c2cc(Cl)cc(Cl)c12)c1ccccc1,inactive: -3.58%
11,COc1cc(C2C(=O)N(C3CCCCCC3)CC(=O)N2Cc2ccccc2)ccc1OC(C)C (centres undefined),inactive: -29.8%
12,COc1ccc(N2CCN(C(=O)C3CCN(Cc4nc(-c5ccc(Cl)cc5)oc4C)CC3)CC2)cc1,inactive: -13.2%
13,CN(C)CCNC(=O)CN1N=C(c2ccccc2)CCC1=O,inactive: -5.49%
14,O=C(O)c1ccccn1,inactive: -35.5%
15,C=C(C)Cn1c(=O)c2c(nc3n2CCN3c2cc(C)cc(C)c2)n(C)c1=O,inactive: -9.31%
16,COC(=O)c1ccc(NC(=O)CN(Cc2ccccc2)S(=O)(=O)c2ccc(C)cc2)cc1,inactive: -6.95%
17,CC(=O)Oc1ccc(C(=C2CCCCC2)c2ccc(OC(C)=O)cc2)cc1,inactive: -14.4%
18,COc1ccc(NC(=O)c2cnc(Nc3ccc(C)c(Cl)c3)c3ccccc23)c(OC)c1,inactive: -2.87%
19,CCOc1ccc(NC(=O)Cn2cc(C(=O)c3ccc(CC)cc3)c(=O)c3cc4c(cc32)OCO4)cc1,inactive: 0.0376%
20,Cc1ccc(Cl)cc1N1CCN(C(=O)c2cnn(C(C)(C)C)c2C2CCN(C(=O)OC(C)(C)C)CC2)CC1,inactive: -8.52%
21,CCCSc1ncc(Cl)c(C(=O)Nc2ccc(S(=O)(=O)N3CCC(C)CC3)cc2)n1,inactive: -17.6%

row,Structure (SMILES),activation
1,COc1ccc(NC(=O)Cn2c(=O)cc(C)c3c(C)nn(C)c32)cc1,inactive: -6.61%
2,COc1ccc(CNc2nc(-c3ccc(OC)cc3)cc(C(F)(F)F)n2)cc1,inactive: -1.3%
3,CCCC(=O)N1CCc2cc(OC)c(OC)cc2C1COc1ccc2c(C)cc(=O)oc2c1 (centres undefined),inactive: -5.5%
4,COc1ccc2c(c1)CC(C(=O)NCCN1CCN(c3ccccc3F)CC1)CO2 (centres undefined),inactive: -12.8%
5,CCc1ccc(NC(=O)CN2CCN(C3CCCCC3)C(=O)C2=O)cc1,inactive: 28%
6,CCC(Sc1ncc(S(=O)(=O)c2ccc(C)cc2)c(=O)[nH]1)C(=O)Nc1cc(C)ccc1C (centres undefined),inactive: -5.65%
7,O=C(Nc1c(C(=O)c2ccc(Cl)cc2)oc2ccccc12)c1cc(=O)c2ccccc2o1,inactive: 11.7%
8,O=C(Cn1cc(SCc2ccc(Br)cc2)c2ccccc21)N1CCCCC1,inactive: -29.7%
9,Cc1ccc(/C=C(\C#N)C(=O)Nc2ccc(Br)cc2)o1,inactive: 1.3%
10,Cn1nnnc1SCCCNCc1cccc(OCc2ccccc2F)c1,inactive: -4.73%
11,COc1ccc(CCN2C(=O)NC(NC(=O)c3ccccc3OC)(C(F)(F)F)C2=O)cc1OC (centres undefined),inactive: -1.33%
12,CCN(C(=O)CSc1nc2ccccc2n1Cc1ccc(C(=O)OC)cc1)c1ccccc1,inactive: -2.09%
13,CCc1nc2ccc(C(=O)NCc3ccc(N(C)C)cc3)cc2nc1CC,inactive: -25.7%
14,Cc1ccc2oc(=O)c(S(=O)(=O)c3ccc(F)cc3)cc2c1,inactive: 16%
15,COc1ccc(NC(=O)c2ccco2)cc1NC(=O)c1ccc(C)c(C)c1,inactive: 3.88%
16,CCc1ccc(NC(=O)C(=O)NCCc2csc(-c3cccc(F)c3)n2)cc1,inactive: -0.827%
17,Cc1ccc(C)c(Nc2nnc(-c3ccc(C)c(S(=O)(=O)N4CCN(C)CC4)c3)c3ccccc23)c1,inactive: 10.3%
18,CCOc1ccc(NC(=O)CSc2oc(-c3cccs3)nc2S(=O)(=O)c2ccc(C)cc2)cc1,inactive: -0.215%
19,CCn1nc(C)c2c(-c3ccccc3)cc(=O)n(C(C)C(=O)Nc3cccc(F)c3)c21 (centres undefined),inactive: -12%
20,Cc1ccc(C2=CC(c3ccccc3C)n3c(nc4ccccc43)N2)cc1 (centres undefined),inactive: -11.4%
21,CCCc1c2oc(C(=O)O)cc(=O)c2cc2c(=O)cc(C(=O)O)n(CC)c12,inactive: -52.6%
